Results: the supplement of paper PMC12217912
This is one part of the list. The full chains were built here from the parent and the listed change. Inactive controls read about 0.05.

B1: TEV protease; numbered along this chain (parent)
chain: MGESLFKGPRDYNPISSSICHLTNESDGHTTSLYGIGFGPFIITNKHLFRRNNGTLVVQSLHGVFKVKDTTTLQQHLVDGRDMIIIRMPKDFPPFPQKLKFREPQREERICLVTTNFQTKSMSSMVSDTSCTFPSGDGIFWKHWIQTKDGQCGSPLVSTRDGFIVGIHSASNFTNTNNYFTSVPKNFMELLTNQEAQQWVSGWRLNADSVLWGGHKVFMVKPEEPFQPVKEATQL

Variants of: B1
Assay: raw area under fraction-flipped curve 0-4 h after induction (AUC4h, not background-subtracted), DNA-recorder readout of cleavage of the substrate (dimensionless); higher = more cleavage of the substrate by the protease variant
Details: temperature: 34 °C; time window: 0-4 h after rhamnose induction
Description: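 In vivo DNA recorder in E. coli TOP10(DE3) ΔrhaA at 34 °C. Each TEVp single-site mutant (parent TEVp 0) is paired with a single-site variant of the 7-mer TEVs (canonical ENLYFQ|S). The substrate sits between flexible linkers in a Bxb1-sfGFP-TEVs-SsrA fusion, so cleavage stabilises Bxb1 and speeds flipping of a recombination array, read by NGS. The value is the raw area under the fraction-flipped curve over 0-4 h after rhamnose induction (AUC4h), with ≥20 reads per time point. It is not background-subtracted; inactive controls average about 0.047.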
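Further: Bxb1 expression induced with 0.2% (w/v) L-rhamnose at OD600 near 0.5, cultures sampled hourly, flipped fraction per protease–substrate barcode pair counted by paired-end Illumina sequencing.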

Variant | area with substrate ENLYFQA | area with substrate ENLYFQD | area with substrate ENLYFQG | area with substrate ENLYFQI | area with substrate ENLYFQK | area with substrate ENLYFQL | area with substrate ENLYFQM | area with substrate ENLYFQP | area with substrate ENLYFQS | area with substrate ENLYFQT | area with substrate ENLYFQV | area with substrate ENLYFQW | area with substrate ENLYFQC | area with substrate ENLYFQH | area with substrate ENLYFQN | area with substrate ENLYFQR | area with substrate ENLYFQY | area with substrate ENLYFQF | area with substrate ENLYFQQ | area with substrate ENLYFQE
F173S | 0.0729 | 0.0644 | 0.0681 | 0.0562 | 0.0907 | 0.0574 | 0.073 | 0.0604 | 0.0898 | 0.0566 | 0.0657 | 0.0638 | – | – | – | – | – | – | – | –
I164T | 0.0875 | – | 0.0813 | 0.0592 | – | 0.0552 | 0.0652 | – | 0.0771 | 0.0538 | 0.054 | 0.0665 | 0.0771 | 0.0649 | 0.053 | 0.0586 | 0.0593 | – | – | –
I164Y | 0.0667 | 0.0474 | 0.0449 | 0.0536 | 0.0662 | 0.0514 | 0.0532 | – | 0.0529 | – | 0.0503 | 0.0499 | – | – | 0.0514 | 0.0474 | 0.0508 | – | – | –
N186W | 0.116 | 0.0592 | – | – | 0.0584 | – | 0.0805 | – | 0.0894 | – | – | 0.0576 | 0.089 | 0.0864 | 0.0593 | 0.05 | – | 0.0794 | – | –
I84C | 0.0859 | – | – | 0.0767 | 0.0702 | 0.0535 | 0.106 | – | 0.104 | – | – | 0.0741 | – | 0.0804 | 0.0857 | 0.0636 | 0.0669 | 0.0708 | – | –
K230L | 0.0967 | – | 0.0914 | 0.0536 | – | 0.0449 | – | – | 0.0941 | 0.0307 | – | 0.0645 | – | 0.0805 | 0.068 | – | 0.0784 | – | – | –
E107M | 0.0788 | 0.0656 | – | – | 0.0669 | 0.0465 | – | 0.0518 | 0.0956 | 0.0702 | 0.0592 | – | – | – | 0.0733 | 0.0505 | 0.072 | 0.0853 | – | –
V113A | 0.0888 | 0.0776 | 0.0836 | 0.0354 | 0.0529 | 0.0576 | 0.075 | – | 0.0923 | 0.0556 | – | 0.0609 | 0.128 | 0.0827 | – | 0.0645 | – | – | 0.0877 | –
S135Y | 0.0663 | 0.0574 | 0.0977 | 0.0633 | – | 0.0572 | 0.0514 | 0.0554 | 0.0657 | 0.0675 | 0.0719 | 0.057 | 0.0569 | 0.0548 | 0.0609 | 0.054 | – | 0.0532 | 0.0535 | –
I19L | 0.128 | 0.0652 | 0.0906 | 0.0594 | 0.0816 | 0.0556 | 0.115 | 0.0647 | 0.117 | 0.0795 | 0.0666 | – | 0.14 | – | 0.0919 | 0.0597 | 0.0851 | 0.0854 | 0.0839 | –
K7Q | 0.098 | – | 0.0857 | – | – | 0.0653 | 0.104 | 0.0592 | 0.0994 | 0.0676 | 0.0707 | 0.0686 | 0.112 | – | 0.0771 | 0.0463 | – | 0.0762 | – | –
R81D | 0.0273 | 0.0647 | 0.0639 | 0.0646 | 0.0622 | 0.0599 | 0.0612 | – | 0.067 | 0.0482 | – | 0.053 | – | – | – | 0.0397 | 0.0659 | 0.0534 | 0.0522 | –
S26A | 0.0917 | 0.0675 | 0.0801 | 0.0564 | 0.0751 | 0.0657 | 0.0746 | 0.0391 | 0.0941 | 0.067 | 0.0659 | 0.0685 | 0.117 | 0.0651 | 0.0739 | 0.0234 | 0.068 | 0.0732 | 0.0638 | –
G35P | 0.0341 | – | 0.0287 | 0.0525 | – | 0.0367 | 0.0427 | – | 0.0467 | – | – | – | – | 0.0535 | 0.0399 | 0.0647 | – | – | – | –
F218L | 0.0868 | – | 0.0819 | 0.0439 | 0.0532 | 0.0578 | 0.0679 | – | 0.102 | 0.0636 | – | 0.0622 | 0.0914 | – | 0.0723 | 0.054 | 0.0511 | – | 0.0712 | –
G28N | 0.113 | 0.073 | 0.0836 | – | 0.057 | 0.072 | – | – | 0.0974 | 0.0834 | – | – | 0.107 | 0.0719 | 0.0729 | – | 0.0906 | – | 0.0736 | –
C20S | 0.0838 | – | 0.0888 | – | 0.058 | 0.0571 | 0.063 | 0.0534 | 0.0814 | 0.0515 | 0.0488 | 0.0582 | 0.0655 | – | 0.064 | 0.0536 | 0.0493 | – | – | –
K68E | 0.0901 | 0.0838 | 0.102 | – | 0.0671 | 0.0579 | 0.0846 | 0.0585 | 0.112 | 0.0493 | – | 0.0691 | 0.123 | 0.0865 | 0.0815 | 0.0537 | 0.0843 | – | – | –
N193I | 0.0833 | 0.0621 | – | – | – | – | 0.0784 | – | 0.0867 | – | – | – | – | 0.0731 | 0.0717 | – | – | – | – | 0.0686
I19E | 0.0522 | 0.0434 | 0.0448 | 0.0481 | 0.0454 | 0.0428 | 0.0494 | 0.0481 | 0.0548 | 0.0425 | – | 0.0514 | – | – | – | 0.04 | 0.0558 | – | – | –
C20T | 0.0939 | – | 0.0853 | 0.0554 | 0.0682 | 0.0555 | 0.0798 | – | 0.0928 | 0.0799 | – | 0.059 | 0.096 | 0.048 | 0.0753 | 0.0609 | 0.102 | 0.0806 | 0.0631 | 0.0616
L211V | 0.0921 | – | 0.0852 | 0.0549 | 0.0709 | – | 0.0785 | – | 0.105 | 0.0778 | 0.0597 | 0.0651 | 0.108 | – | 0.0892 | – | 0.0631 | 0.113 | – | –
S60E | 0.0444 | 0.0468 | 0.059 | 0.0643 | 0.0423 | 0.0517 | 0.0583 | 0.0445 | 0.0619 | 0.0499 | 0.0529 | 0.0498 | 0.0642 | 0.0602 | 0.0553 | 0.0514 | – | 0.0489 | 0.0519 | –
D11M | 0.0642 | 0.0626 | 0.0656 | 0.0353 | – | 0.0624 | 0.0524 | 0.0733 | 0.0645 | 0.0539 | – | 0.0561 | 0.0669 | – | 0.0624 | 0.051 | 0.0566 | 0.0574 | – | –
G2E | 0.0889 | – | – | 0.0649 | 0.0699 | 0.0657 | – | – | 0.0972 | – | 0.0499 | – | 0.121 | – | – | 0.0726 | – | – | 0.0512 | 0.0688
G54N | 0.0673 | – | – | 0.0635 | 0.0497 | 0.0595 | 0.0564 | 0.0537 | 0.0675 | 0.0598 | 0.0556 | 0.0589 | 0.0721 | – | 0.0587 | 0.0546 | – | 0.078 | – | –
